From PubChem BioAssay AID624417 (National Center for Advancing Translational Sciences (NCATS), 2012)
Where “and” joins values, the source holds several entries; their conditions need not be identical. Equal entries are not always repeated. Hit rate of the full screen: of about 410,000 compounds, about 6,400 (1.6%) were called active. The shares of active, inactive and inconclusive entries below differ from those in the screen. Calls follow the shape of the dose curve; as a rule, active = well fitted inhibition curve with a large enough effect; inconclusive = small, poorly fitted or top-dose-only effect; inactive = no such curve, though single readings can be large or run the other way. A potency beside an inconclusive call is a rough fit, not a confirmed value.

biological target: Glucagon-like peptide 1 receptor (Homo sapiens) (UniProt P43220); experiment: qHTS of GLP-1 Receptor Inverse Agonists (Inhibition Mode); conditions: HEK293 GLP-1R CRE-luciferase, luminescence, 24 h, GLP-1R form is constitutively active; activity change, negative = inhibition: at 38.3 µM (top of the series) unless noted; also: nearly all actives have a fitted effect of over 55% in size
Chain of UniProt P43220 (P43220 whole entry, looked up): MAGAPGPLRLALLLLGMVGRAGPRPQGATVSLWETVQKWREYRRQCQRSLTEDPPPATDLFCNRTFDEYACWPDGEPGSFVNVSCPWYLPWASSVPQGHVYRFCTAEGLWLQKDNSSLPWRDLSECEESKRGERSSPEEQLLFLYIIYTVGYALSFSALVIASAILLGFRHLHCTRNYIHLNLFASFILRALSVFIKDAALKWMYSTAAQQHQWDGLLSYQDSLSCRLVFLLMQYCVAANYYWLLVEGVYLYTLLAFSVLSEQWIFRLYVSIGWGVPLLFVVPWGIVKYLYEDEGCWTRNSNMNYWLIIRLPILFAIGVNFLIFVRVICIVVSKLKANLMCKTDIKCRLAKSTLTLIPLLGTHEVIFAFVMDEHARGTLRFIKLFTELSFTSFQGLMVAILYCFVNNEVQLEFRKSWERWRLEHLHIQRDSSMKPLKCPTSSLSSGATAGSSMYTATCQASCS
Method in brief: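 Luminescence readout: a drop in cAMP-driven luciferase signal flags inverse agonism at a constitutively active GLP-1R stably expressed in HEK293. Compound exposure lasted 24 hr at 37 deg C, 5% CO2.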
% is scaled to controls: 0 for no effect and ±100 for the full control effect; potency is read from the fitted curve at half-maximal effect; tags tell the direction and shape of the fitted curve.

SMILES | Potency | activity change, negative = inhibition
NNC(=O)c1csc(Cc2c(Cl)sc3ccc(Cl)cc23)n1 | inconclusive: 31.6 µM [inhibitor, single point] | 
CCC(C)Sc1cc(-c2nc3ccc(Cl)cn3c2NC2CCCCC2)ccc1OC (centres undefined) | inconclusive: 12.6 µM [inhibitor, single point] and inconclusive: 14.1 µM [inhibitor, single point] | 
CCOc1ccc(CNC(=O)c2ccc(Sc3ccc(C)cc3)c(NC(C)=O)c2)cc1OC | inconclusive: 2.51 µM [inhibitor, partial curve, poor fit] | 
COc1ccc(CN(C(=O)c2ccc(-c3ccccc3)[nH]2)C(C(=O)NC(C)(C)C)c2ccncc2)cc1 (centres undefined) | inconclusive: 11.2 µM [inhibitor, partial curve, poor fit] | 
CC1CCCC(NC(=S)NC(=O)c2ccco2)C1C (centres undefined) | inconclusive: 17.8 µM [inhibitor, partial curve, poor fit] | 
COc1ccc(C(=O)/C=C/c2ccc(N3CCCCC3)c([N+](=O)[O-])c2)cc1 | inconclusive: 12.6 µM [inhibitor, partial curve, poor fit] | 
Cc1ccc(NC(=S)N(CCCN2CCN(C)CC2)Cc2cccs2)cc1C | inconclusive: 11.2 µM [inhibitor, partial curve, poor fit] | 
C/C(=N\NC(=O)c1ccccc1)c1ccc(C)c([N+](=O)[O-])c1 | inactive | 
Cc1ccc(Cn2nnc3c(=O)[nH]c(C4CCN(S(=O)(=O)Cc5ccccc5)CC4)nc32)cc1 | inconclusive: 28.2 µM [inhibitor, single point] | 
C#CCN1C=CC(=O)[C@@H](O)[C@H]1c1ccccc1Br | inactive | 
CCOc1ccc(OCCC(=O)OCC(=O)NNC(=O)c2ccccc2)cc1 | inactive | 
Cc1ccc(Cn2c(N)nc3ccccc32)cc1 | inconclusive: 11.2 µM [inhibitor, single point] | 
COc1ccc(-c2cc(C(=O)NCc3cccc(Cl)c3)[nH]n2)c(C)c1 | inconclusive: 28.2 µM [inhibitor, single point] | 
COc1ccc(OC)c(NC(=O)CN2C(=O)CC(c3ccco3)Sc3ccccc32)c1 (centres undefined) | inconclusive: 28.2 µM [inhibitor, single point] | 
Cc1occc1C(=O)NCc1nc(-c2ccc(Cl)cc2)no1 | inconclusive: 22.4 µM [inhibitor, single point] | 
Cc1ccc(NC(=O)CCC(=O)N/N=C/c2ccc(O)cc2O)cc1 | inconclusive: 8.91 µM [inhibitor, single point] | 
C/C(=N/NC(=O)Nc1ccccc1)c1ccc(C)cc1 | inactive | 
CCCCn1nnnc1C(c1ccccc1)N1CCN(C/C=C/c2ccccc2)CC1 (centres undefined) | inconclusive: 28.2 µM [inhibitor, single point] | 
O=C(Nc1ccc(C(=O)N2CCOCC2)cc1)c1cc(-c2cccnc2)nc2ccc(Cl)cc12 | inconclusive: 14.1 µM [inhibitor, single point] | 
Cc1cc(NCCCN)nc(-c2ccccc2O)n1 | active: 10 µM | 

SMILES | Potency | activity change, negative = inhibition
CC1CCc2nc(NC(=O)CSc3nc4ccccc4o3)sc2C1 (centres undefined) | inconclusive: 0.891 µM [inhibitor, full curve, poor fit] | 
CCN(CC)S(=O)(=O)c1ccc2nc(CSc3nnnn3-c3ccc(O)cc3)[nH]c2c1 | inconclusive: 11.2 µM [inhibitor, partial curve, poor fit] | 
O=C(CCCCCN1C(=O)c2cccc3cccc(c23)C1=O)NCc1cccnc1 | inconclusive: 14.1 µM [inhibitor, partial curve, poor fit] | 
O=C(CN1C(=O)c2cccc3cccc1c23)N1CCN(Cc2ccc3c(c2)OCO3)CC1 | inconclusive: 2.51 µM [inhibitor, full curve, poor fit] | 
O=C(Nc1ccn(-c2ccccc2)n1)c1ccc(S(=O)(=O)N2CCCCCC2)cc1 | inconclusive: 28.2 µM [inhibitor, single point] | 
COc1ccccc1N(CC(=O)Nc1cccc(C(F)(F)F)c1)S(C)(=O)=O | inactive | 
CN(c1ccccc1)S(=O)(=O)c1cc(C(=O)NCCCn2ccnc2)ccc1Cl | inconclusive: 8.91 µM [inhibitor, partial curve, poor fit] | 
C=CCNC(=S)N1CCC(Cc2ccccc2)CC1 | inconclusive: 17.8 µM [inhibitor, partial curve, poor fit] | 
COc1ccc(C(=O)Nc2cccc(-c3csc(C)n3)c2)cc1S(=O)(=O)N1CCCC1 | inconclusive: 31.6 µM [inhibitor, single point] | 
COc1ccc(C2C3=C(CCCC3=O)Nc3ccc4ncccc4c32)cc1OC (centres undefined) |  | inactive: -5.3% [at 0.307 µM]
O=C(CN1C(=O)c2ccccc2S1(=O)=O)c1ccc(OC(F)F)cc1 | inconclusive: 2.82 µM [inhibitor, full curve, poor fit] | 
CCOc1cc(/C=N/NC(=S)Nc2ccccc2C(F)(F)F)ccc1OCC(=O)N1CCOCC1 | inconclusive: 11.2 µM [inhibitor, single point] | 
Cc1ccc(CC(=O)N(Cc2nc(-c3ccc(C)cc3)no2)C(C)C)cc1 | inconclusive: 28.2 µM [inhibitor, single point] | 
O=C(CCc1nc(-c2ccccc2F)no1)Nc1cccc(C(F)(F)F)c1 | inconclusive: 11.2 µM [inhibitor, partial curve, poor fit] | 
CC(C)N(C)c1ncnc2c1ncn2[C@H]1CN(C2CCCC2)C[C@@H](CO)O1 | inactive | 
O=C(Cc1cc2ccccc2o1)NCc1ccc(F)cc1 | inconclusive: 3.98 µM [inhibitor, partial curve, poor fit] | 
CC1(c2cccc(Br)c2)NC(=O)N(CC(=O)c2ccc3c(c2)OCO3)C1=O (centres undefined) | inconclusive: 28.2 µM [inhibitor, single point] | 
CN(C(=O)CSc1cn(CC(=O)N2CCCCCC2)c2ccccc12)c1ccccc1 | inconclusive: 31.6 µM [inhibitor, single point] | 
O=C(NC1CCCCC1)c1ccc(Cn2c(SCc3cccc(F)c3)nc3cccnc32)cc1 | inactive | 
